Measurements as given in PubChem BioAssay AID652104 (National Center for Advancing Translational Sciences (NCATS), 2013).
In all, about 410,000 compounds went through this assay and about 7,200 (1.8%) were called active. This list was built around the results that the source calls inconclusive (neither active nor inactive); the mix of calls is not that of the screen. Calls come from the whole dose curve; as a rule, active = well fitted activation curve with a large enough effect; inconclusive = small, poorly fitted or top-dose-only effect, or another doubt; inactive = no such curve, though single readings can be large or run the other way. Potencies of inconclusive entries are left out as doubtful fits.

experiment: qHTS of TDP-43 Inhibitors; conditions: TDP-43 expressing yeast growth rescue, BacTiter-Glo, 24 h; growth rescue (activation): at 46.1 µM (top of the series) unless noted; note: nearly all actives have a fitted effect of over 50% in size; for growth rescue (activation): % of control where 0% means no effect
Summary of the method: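 Readout is BacTiter-Glo luminescence of cell growth, so inhibitors register as activators. TDP-43-expressing yeast at OD600=0.02 in galactose medium, after raffinose pregrowth to mid-log, were incubated with compound for 24 hr at 30 deg C.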
Potency is the fitted concentration of half-maximal effect; tags give direction and shape of the fitted curve.

Compound	Potency	growth rescue (activation)
O=C(c1cccc([N+](=O)[O-])c1)N1CCN(c2ccc(Cl)cc2)CC1	inconclusive [activator, partial curve]	
CC(C)OCCCn1c(=N)c(C(N)=S)cc2c(=O)n3ccccc3nc21		inconclusive: 18.6% [activator]
COc1ccccc1N1CCN(C(=O)c2cc3c(=O)n(Cc4cccnc4)ccc3nc2C)CC1	inactive	
CC(Oc1ccc2ccccc2c1)C(=O)NNC(=S)NC(=O)c1ccco1 (centres undefined)		inconclusive: -88.7% [activator]
COC(=O)c1ccccc1NC(=O)C12CC3CC(C1)CC(n1cnc(Cl)n1)(C3)C2	inconclusive [activator, single point]	
CCOc1ccc(-n2ccnc2SCC(=O)Nc2ccc(OC)cc2OC)cc1	inconclusive [activator, full curve]	
COc1cccc2cc(/C(=N/O)c3ccccc3)oc12	active: 11.2 µM	
CC(C)(C)Nc1nc(SCc2ccccc2)nc(N2CCOCC2)n1	inconclusive [activator, single point]	
Cc1ccc(/C=N/OC(=O)c2nn(C)cc2Cl)cc1	inconclusive [activator, full curve]	
CCc1ccc(Nc2nc3ccccc3c3nnc(C)n23)cc1	inconclusive [activator, partial curve]	
CC(=O)c1cccc(NC(=O)c2cc(C(C)C)on2)c1	inconclusive [activator, partial curve]	
Cc1cc(SC(C)C(=O)O)nc2ccccc12 (centres undefined)	inconclusive [activator, single point]	
CC12COC3(C(=O)N4CCN(c5ccccn5)CC4)CC1CCC32C (centres undefined)	inactive	
Cc1cccc(C)c1N1CCN(C(=O)c2ccc3c(c2)OCO3)CC1	inconclusive [activator, partial curve]	
CC(C)n1ncc2c(C(=O)NCCc3ccc(F)cc3)cc(C3CC3)nc21	inactive	
O=C(Cc1ccccc1)NC(=S)Nc1ccc(OC(F)F)cc1	inactive	
COc1cccc(N2CCN(CC(=O)Nc3nnc(-c4ccccc4)s3)CC2)c1	inconclusive [activator, single point]	
Cc1ccc(S(=O)(=O)N2CCC(C(=O)OCc3c(C)noc3C)CC2)cc1C	inconclusive [activator, partial curve]	
Cc1occc1C(=O)Nc1ccc2ccccc2c1	inconclusive [activator, single point]	
N/C(=N\OC(=O)c1ccccc1Br)c1ccc([N+](=O)[O-])cc1	inconclusive [activator, full curve]	
CC(=O)c1ccc(N2CCN(C(=O)/C=C/c3ccc4ccccc4n3)CC2)cc1	inconclusive [activator, partial curve, poor fit]	
Cc1cc(Cl)ccc1-c1nc(NCc2ccccc2)nc2ccsc12	inconclusive [activator, partial curve]	

Compound	Potency	growth rescue (activation)
Cc1cccc(Oc2ccccc2NS(=O)(=O)c2ccc(CCC(=O)O)cc2)c1	inconclusive [activator, single point]	
O=C(COc1ccc(Cl)cc1Cl)Nc1ccc(C(=O)OC2CCCCC2)cc1	inactive	
Cn1nc(C(=O)Nc2cccc(C(F)(F)F)c2)c2c1-c1ccccc1S(=O)(=O)C2	inconclusive [activator, partial curve, poor fit]	
CCOC(=O)C1CCCN(C2=NC(=O)/C(=C/c3ccc(N(C)C)cc3)S2)C1 (centres undefined)	inconclusive [activator, single point]	
S=C(c1cn(Cc2ccc(Br)cc2)c2ccccc12)N1CCOCC1	inconclusive [activator, single point]	
O=C(c1ccc(F)cc1F)N1CCCN(c2nc(-c3ccccc3)ns2)CC1	inconclusive [activator, partial curve]	
Cc1c(N/N=C(\C#N)C(=O)c2ccc(Cl)cc2)c(=O)n(-c2ccccc2)n1C	inconclusive [activator, single point]	
Cc1nn(-c2cc(N3CCCCCC3)ccc2[N+](=O)[O-])c(=O)c2ccccc12	inconclusive [activator, single point]	
CCc1nnc(NC(=O)CSc2ncc(-c3ccccc3)n2CC)s1	inconclusive [activator, single point]	
CCc1ccccc1NC(=O)CSc1nccn1C	inactive	
CCN1CCCC1CN(Cc1cc2cc(C)cc(C)c2[nH]c1=O)C(=O)Nc1ccccc1OC (centres undefined)	inactive	
Cc1cccc(Cn2nnc3c(=O)[nH]c(C4CCCN(C(=O)c5ccc(C(C)(C)C)cc5)C4)nc32)c1 (centres undefined)	inactive	
CSc1ccccc1N=CC1=C(O)CC(C)(C)CC1=O	inconclusive [activator, full curve]	
Fc1ccc(Nc2nnc(C(F)(F)F)s2)cc1	active: 12.6 µM	
Clc1ccc(OCCn2c(-c3ccco3)nc3ccccc32)cc1	inconclusive [activator, full curve, poor fit]	
Cc1cccc(Cn2nnc3c2C(=O)c2ccccc2C3=O)c1	inconclusive [activator, single point]	
O=S(=O)(NCc1ccc(Cl)cc1)NCc1ccccc1F		inactive: -11.6% [at 0.397 µM]
Cc1ccc2nc(CSc3nnc(Nc4ccccc4F)s3)cc(=O)n2c1	inconclusive [activator, single point]	
Cc1cc(C)nc(NS(=O)(=O)c2ccc(NC(=O)c3ccco3)cc2)n1	inconclusive [activator, full curve, poor fit]	
O=[N+]([O-])c1ccc(NN=Cc2ccc(O)cc2O)nc1	inactive	
O=C(Cc1cccs1)NCc1ccc2c(c1)OCO2	inconclusive [activator, partial curve, poor fit]	
COc1ccc(C(=O)c2c(C)oc3ccc(O)cc23)cc1	inconclusive [activator, single point]	
